# Data reported in the supplement of paper PMC3334620.
# Over roughly 33,000 sequences, “E-score (-0.5 to 0.5)” has its median near -0.054; the highest 2% begin near 0.39. The list shows a part of the results.
# Target: Ylr278c (UniProt Q05854)
# Assay: PBM E-score (8-mer binding enrichment) (E-score (-0.5 to 0.5)); higher = stronger / more preferred TF binding; most listed sequences are background and not binding sites
# Settings: protein concentration: 200 nM; construct: GST-DNA-binding domain
# In short: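 Each ungapped eight-base word and its reverse complement, pooled, received an E-score from the Universal PBM Analysis Suite. Underlying scans, normalised with masliner, recorded fluorescent anti-GST bound to GST-tagged yeast transcription factors. These were applied at about 100-200 nM to universal all-10-mer Agilent arrays double-stranded by primer extension.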
row,Sequence,PBM E-score
1,ACTAAGTG,-0.124
2,GAGGAGCA,-0.0254
3,ATCGTTTC,-0.0485
4,GCAAAGCC,-0.0386
5,AAAACTAG,-0.062
6,CCAGAACA,-0.0559
7,CATTATCC,0.202
8,CACGGTAC,-0.0692
9,GCGTTCTA,0.189
10,AAAGATGG,-0.0899
11,GAAGTATA,0.11
12,GAGCATGA,-0.158
13,CCTGCACC,-0.0429
14,GACCATGA,0.0081
15,CTAGTCGA,-0.237
16,ACCAGACA,-0.164
17,TGAATCCA,-0.128
18,CTGAACCA,-0.255
19,AAAAAGTC,0.192
20,AACGACAT,-0.0462
21,CAACGAGC,-0.234
22,AATCGTGC,0.107
23,GTCCAAAA,0.136
24,CTTTCAGA,-0.0994
25,AAGGCTGC,-0.149

row,Sequence,PBM E-score
1,TGCAGACA,-0.196
2,ACTTACCT,-0.148
3,CGCCAATA,-0.045
4,CGACGGCG,0.292
5,AATGCCTA,0.0677
6,GAAGTAAA,0.115
7,CTAGGCGC,-0.0895
8,AGTGAGAC,-0.0928
9,TCATGGGA,-0.246
10,CTATACCA,-0.225
11,CGAGTCAG,-0.151
12,AGTAGTAT,-0.121
13,GGACGTAC,0.0307
14,AACTTGAT,-0.118
15,CACTCCAG,-0.114
16,ACAGCAGC,-0.191
17,CAGCTGAG,-0.175
18,ACTGACTC,-0.0355
19,GATCCATA,0.0155
20,ACCCGGTA,0.161
21,TGCTTGAA,-0.118
22,GAACGCCA,-0.00304
23,GAGGTTCC,0.0696
24,CCTCTTGC,-0.1
25,CTGAGGTC,-0.297

row,Sequence,PBM E-score
1,CAAGTGAC,-0.0978
2,CTGGGTTA,-0.14
3,CATAGAGC,-0.211
4,AATGCACC,0.121
5,CTGGAAGC,-0.226
6,AAAGCTAT,-0.0422
7,AATTAACC,0.192
8,ATAAGAAT,-0.0758
9,ATACGACA,-0.229
10,ACATTACA,-0.104
11,ACCAGTAA,0.00819
12,AAAGGCCA,-0.109
13,AGCAACGC,0.0442
14,GATGACAA,0.0504
15,AGGCGCTC,0.0698
16,GGCCTCAC,-0.0329
17,AAACTGTG,-0.134
18,ATCTGCTG,-0.22
19,ATATGCGA,-0.00735
20,GCGAACAC,-0.00082
21,CCTTGCAG,-0.0823
22,TAACTCAA,-0.155
23,CTCCCCCA,-0.135
24,CCAGGGGC,-0.298
25,CTCACCTC,-0.0994

row,Sequence,PBM E-score
1,ACGGAGGA,0.383
2,CCACATTA,-0.0697
3,CGCGAGTA,0.106
4,AACGACGG,0.176
5,CCTCGGGC,0.136
6,CATTGTGA,-0.106
7,CGAAGCTA,-0.16
8,GCAACAAA,-0.0318
9,CCGACAGA,0.306
10,CGCCTCTA,-0.119
11,CCCCACAA,-0.0102
12,ACATTACG,-0.102
13,ATGCTTGC,-0.155
14,CTGTACAG,-0.18
15,AGGATCCT,-0.232
16,CTTTGGGA,-0.157
17,CGGCGCCC,0.246
18,GAGCTCAA,0.108
19,ATCGGGGA,0.33
20,AGCGGATA,0.287
21,CGGCTCTC,0.119
22,CTAACAAG,-0.324
23,ACGTTCCT,-0.0566
24,GGAATACA,0.286
25,ACCAAGAG,-0.29

row,Sequence,PBM E-score
1,ACGACCAC,-0.211
2,AGAGGCGC,-0.133
3,GGCTAGAA,0.0303
4,ACGCCCCT,-0.288
5,AGAGTGAA,-0.00028
6,CATTTCTC,0.133
7,TGAGAAAA,-0.136
8,GCACTGCC,0.0854
9,AACCCCCA,-0.224
10,AAACCGAT,0.147
11,CAGCGGCC,0.156
12,ATGTGGTG,-0.0662
13,CGTTATAG,-0.198
14,GCGGCTCA,0.092
15,ACAACAGA,-0.167
16,CGTACTTC,0.134
17,ATAGGCAG,-0.209
18,ACATATCG,-0.155
19,TACCCGAA,0.0727
20,CGCACCTA,-0.0854
21,GAGGTTCA,0.0375
22,ATCACCCC,-0.0133
23,AACTTATC,0.0759
24,GCGCGTCC,0.0412
25,AGCCCAGA,-0.0881

row,Sequence,PBM E-score
1,CCTAGCCG,0.167
2,CTAAAAAC,-0.18
3,AAACTATG,-0.155
4,ACGTTAAA,-0.0842
5,CCCTGCGC,-0.00024
6,TCGTGTCA,-0.163
7,ACTGATTA,-0.165
8,CGTTAAAG,-0.0539
9,CGTGCTTC,-0.0238
10,CCACGTAG,-0.214
11,AAGGGGCG,0.104
12,AAGACCAA,-0.1
13,GCGCTTCA,0.0702
14,GAGACTGC,-0.103
15,ATTCGCCG,0.358
16,CGCGTAAG,0.124
17,CGACACCA,0.00727
18,CAGCGCCA,-0.177
19,CAATTATC,0.176
20,GTAGCGAA,0.023
21,AGGGTTTA,-0.272
22,TCTTTAAA,-0.1
23,ATTGAGGG,-0.057
24,CCGCTCCC,0.191
25,AGACTCAC,-0.248

row,Sequence,PBM E-score
1,ATAAGTAT,-0.0601
2,CTTCGTTA,-0.196
3,CAGGTTAG,-0.0908
4,ATATCTAG,-0.158
5,CGGCCGCC,0.282
6,AATTGTGC,-0.111
7,CCTATCGA,-0.293
8,CTCCCACC,-0.125
9,CGTCAGGC,-0.0762
10,GAGGCCGA,0.217
11,GCGTACGA,0.0892
12,TAATAGGA,0.0116
13,ACTTTATG,-0.132
14,CGTCTAGA,-0.217
15,GATGCCAA,-0.218
16,CGTGCTCA,-0.0992
17,CCACGACG,0.0958
18,CGCACTCA,0.0572
19,CGATAGAG,-0.101
20,ATTCCAAA,-0.142
21,TGACCACA,-0.213
22,GGCCGGCA,0.394
23,AAACATAG,-0.153
24,ACTTCTAG,-0.27
25,AAGTGCGG,0.297

row,Sequence,PBM E-score
1,CCATTGTC,0.0343
2,ATTGGGGG,-0.203
3,AGCCGTAG,0.0828
4,GCCAGTAA,-0.0512
5,ACATGTTC,-0.152
6,ACAATAGA,-0.133
7,ACGGTAGC,-0.13
8,CTCGCTTC,-0.0187
9,ACATATGG,-0.174
10,GGCGCAGA,0.0101
11,CTACAACC,-0.129
12,AACGTCGA,-0.269
13,CAAACGTG,-0.0432
14,TAGCATAA,-0.111
15,CACAATAG,-0.0599
16,GGCCGGAA,0.422
17,AAGACGGG,0.195
18,GACCGTAA,0.0267
19,AGACGGAC,0.234
20,CAGCTCTC,-0.115
21,CAGCAGTA,-0.18
22,GCATTACC,0.105
23,TAGGACTA,-0.0594
24,AAATCTTG,-0.0994
25,ATCCCCCA,-0.284

row,Sequence,PBM E-score
1,ACTGGAAG,-0.217
2,GCCTAAGC,-0.104
3,GAACGCCC,0.191
4,AATTTGGC,-0.131
5,ACGAGCGC,0.0689
6,AATTACGT,-0.192
7,ATGTGATA,-0.278
8,AAAATCCG,0.451
9,ATACTATA,-0.0464
10,AAAATCGA,-0.177
11,GCGTCTGA,-0.169
12,CTGAGGCA,-0.222
13,CGTAAAAG,0.0222
14,CGATGCGC,0.115
15,AACGATAT,-0.121
16,CAACTCAA,0.0251
17,TAGTCAAA,-0.144
18,CATTGAGC,-0.161
19,CGATCTTA,0.0101
